Residue numbers refer to the chain shown, from its start. The list shows a part of the results.

The chains are these.
T1: RBFOX1 RRM RbFoxmut (Fox-RRM*) (Homo sapiens, UniProt Q9NWB1 109-208, R118D;E147R;N151S;E152T)
T1 sequence: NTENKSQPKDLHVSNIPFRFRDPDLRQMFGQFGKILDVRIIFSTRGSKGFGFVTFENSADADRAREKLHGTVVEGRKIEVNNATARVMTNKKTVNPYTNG

B1: GUCUGGC (DNA:RNA)
RNA: GGGAGACCGGAAUUCAGAUUGUCCGUCUGGCUUAAAUCCCGUCGUAGCCACCA
DNA 1: CAATCTGAATTCCGGTCTCCC
DNA 2: TGGTGGCTACGACGGGATT
B2: CGCGGGC (DNA:RNA)
RNA: B1 RNA with G25C, U26G, U28G
DNA 1: CAATCTGAATTCCGGTCTCCC
DNA 2: TGGTGGCTACGACGGGATT
B3: UUGUCGG (DNA:RNA)
RNA: B1 RNA with G25U, C27G, G29C, C31G
DNA 1: CAATCTGAATTCCGGTCTCCC
DNA 2: TGGTGGCTACGACGGGATT
B4: GAGGGUA (DNA:RNA)
RNA: B1 RNA with U26A, C27G, U28G, G30U, C31A
DNA 1: CAATCTGAATTCCGGTCTCCC
DNA 2: TGGTGGCTACGACGGGATT
B5: UUUUCCC (DNA:RNA)
RNA: B1 RNA with G25U, C27U, G29C, G30C
DNA 1: CAATCTGAATTCCGGTCTCCC
DNA 2: TGGTGGCTACGACGGGATT
B6: ACGGCCG (DNA:RNA)
RNA: GGGAGACCGGAAUUCAGAUUGUCCACGGCCGUUAAAUCCCGUCGUAGCCACCA
DNA 1: CAATCTGAATTCCGGTCTCCC
DNA 2: TGGTGGCTACGACGGGATT
B7: CCGAGUU (DNA:RNA)
RNA: B6 RNA with A25C, G28A, C29G, C30U, G31U
DNA 1: CAATCTGAATTCCGGTCTCCC
DNA 2: TGGTGGCTACGACGGGATT
B8: UCGGAUC (DNA:RNA)
RNA: B6 RNA with A25U, C29A, C30U, G31C
DNA 1: CAATCTGAATTCCGGTCTCCC
DNA 2: TGGTGGCTACGACGGGATT
B9: CGGACUC (DNA:RNA)
RNA: B6 RNA with A25C, C26G, G28A, C30U, G31C
DNA 1: CAATCTGAATTCCGGTCTCCC
DNA 2: TGGTGGCTACGACGGGATT
B10: GGCAUCU (DNA:RNA)
RNA: B1 RNA with U26G, U28A, G29U, G30C, C31U
DNA 1: CAATCTGAATTCCGGTCTCCC
DNA 2: TGGTGGCTACGACGGGATT
B11: GCAAAAG (DNA:RNA)
RNA: B6 RNA with A25G, G27A, G28A, C29A, C30A
DNA 1: CAATCTGAATTCCGGTCTCCC
DNA 2: TGGTGGCTACGACGGGATT
B12: UGUUUAC (DNA:RNA)
RNA: B1 RNA with G25U, U26G, C27U, G29U, G30A
DNA 1: CAATCTGAATTCCGGTCTCCC
DNA 2: TGGTGGCTACGACGGGATT
B13: UCUUAGG (DNA:RNA)
RNA: B6 RNA with A25U, G27U, G28U, C29A, C30G
DNA 1: CAATCTGAATTCCGGTCTCCC
DNA 2: TGGTGGCTACGACGGGATT
B14: UGAAGAC (DNA:RNA)
RNA: B1 RNA with G25U, U26G, C27A, U28A, G30A
DNA 1: CAATCTGAATTCCGGTCTCCC
DNA 2: TGGTGGCTACGACGGGATT
B15: UAAACAU (DNA:RNA)
RNA: B6 RNA with A25U, C26A, G27A, G28A, C30A, G31U
DNA 1: CAATCTGAATTCCGGTCTCCC
DNA 2: TGGTGGCTACGACGGGATT
B16: GACCGUG (DNA:RNA)
RNA: B1 RNA with U26A, U28C, G30U, C31G
DNA 1: CAATCTGAATTCCGGTCTCCC
DNA 2: TGGTGGCTACGACGGGATT
B17: UGUGUGG (DNA:RNA)
RNA: B6 RNA with A25U, C26G, G27U, C29U, C30G
DNA 1: CAATCTGAATTCCGGTCTCCC
DNA 2: TGGTGGCTACGACGGGATT
B18: UUAGGGC (DNA:RNA)
RNA: B1 RNA with G25U, C27A, U28G
DNA 1: CAATCTGAATTCCGGTCTCCC
DNA 2: TGGTGGCTACGACGGGATT
B19: CUCACCA (DNA:RNA)
RNA: B6 RNA with A25C, C26U, G27C, G28A, G31A
DNA 1: CAATCTGAATTCCGGTCTCCC
DNA 2: TGGTGGCTACGACGGGATT
B20: AGGGCGA (DNA:RNA)
RNA: B6 RNA with C26G, C30G, G31A
DNA 1: CAATCTGAATTCCGGTCTCCC
DNA 2: TGGTGGCTACGACGGGATT
B21: AUACAUU (DNA:RNA)
RNA: B6 RNA with C26U, G27A, G28C, C29A, C30U, G31U
DNA 1: CAATCTGAATTCCGGTCTCCC
DNA 2: TGGTGGCTACGACGGGATT
B22: UGUCUAA (DNA:RNA)
RNA: GGGAGACCGGAAUUCAGAUUGUCCUGUCUAAUUAAAUCCCGUCGUAGCCACCA
DNA 1: CAATCTGAATTCCGGTCTCCC
DNA 2: TGGTGGCTACGACGGGATT
B23: UCCUUUG (DNA:RNA)
RNA: B6 RNA with A25U, G27C, G28U, C29U, C30U
DNA 1: CAATCTGAATTCCGGTCTCCC
DNA 2: TGGTGGCTACGACGGGATT
B24: CCACACG (DNA:RNA)
RNA: B6 RNA with A25C, G27A, G28C, C29A
DNA 1: CAATCTGAATTCCGGTCTCCC
DNA 2: TGGTGGCTACGACGGGATT
B25: UAUUACG (DNA:RNA)
RNA: B6 RNA with A25U, C26A, G27U, G28U, C29A
DNA 1: CAATCTGAATTCCGGTCTCCC
DNA 2: TGGTGGCTACGACGGGATT
B26: AGUGGCC (DNA:RNA)
RNA: B6 RNA with C26G, G27U, C29G, G31C
DNA 1: CAATCTGAATTCCGGTCTCCC
DNA 2: TGGTGGCTACGACGGGATT
B27: ACCCCAU (DNA:RNA)
RNA: B6 RNA with G27C, G28C, C30A, G31U
DNA 1: CAATCTGAATTCCGGTCTCCC
DNA 2: TGGTGGCTACGACGGGATT
B28: CGUGAAA (DNA:RNA)
RNA: B22 RNA with U25C, C28G, U29A
DNA 1: CAATCTGAATTCCGGTCTCCC
DNA 2: TGGTGGCTACGACGGGATT
B29: GAGGAGG (DNA:RNA)
RNA: B6 RNA with A25G, C26A, C29A, C30G
DNA 1: CAATCTGAATTCCGGTCTCCC
DNA 2: TGGTGGCTACGACGGGATT
B30: UGUCCGU (DNA:RNA)
RNA: B22 RNA with U29C, A30G, A31U
DNA 1: CAATCTGAATTCCGGTCTCCC
DNA 2: TGGTGGCTACGACGGGATT
B31: CGCAGAA (DNA:RNA)
RNA: B22 RNA with U25C, U27C, C28A, U29G
DNA 1: CAATCTGAATTCCGGTCTCCC
DNA 2: TGGTGGCTACGACGGGATT

The target of this experiment is T1, RBFOX1 RRM RbFoxmut (Fox-RRM*). Description: EMSA; HiTS-Eq, 1 nM pool, 10 min; buffer printed only for the single-RNA assays: 10 mM Tris pH 7.5, 150 mM NaCl, 3.4 mM EDTA, 0.001% NP-40, 30 C. Conditions: tags: His6 N-terminal (pET28a); label: 5' 32P. The gist of the method:
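These values rest on relative association constants, computed from read-count changes of each RNA species versus the control reaction and normalised to the cognate motif. Reads came from free RNA recovered by 8% native PAGE after purified RbFox RRM (wild type or mutant) at increasing concentrations was equilibrated for 10 min in 50 µL with 1 nM of a 5′-radiolabelled pool with 7 randomized nucleotides and DNA-annealed flanks.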
For B1, the binding signal is 0.132 KA relative to UGCAUGU.

Consider B2, for which the binding signal is 0.0882 KA relative to UGCAUGU.

Regarding B3, the binding signal is 0.122 KA relative to UGCAUGU.

B4: the binding signal is 0.168 KA relative to UGCAUGU.

As to B5, the binding signal is 0.0312 KA relative to UGCAUGU.

As for B6, the binding signal is 0.13 KA relative to UGCAUGU.

On to B7, for which the binding signal is 0.0953 KA relative to UGCAUGU.

With B8, the binding signal was 0.111 KA relative to UGCAUGU.

Turning to B9, the binding signal is 0.112 KA relative to UGCAUGU.

With B10, the binding signal was 0.27 KA relative to UGCAUGU.

In the case of B11, the binding signal was 0.0795 KA relative to UGCAUGU.

In the case of B12, the binding signal is 0.103 KA relative to UGCAUGU.

Take B13: the binding signal is 0.098 KA relative to UGCAUGU.

Turning to B14, the binding signal was 0.044 KA relative to UGCAUGU.

Consider B15, for which the binding signal is 0.0524 KA relative to UGCAUGU.

As for B16, the binding signal was 0.144 KA relative to UGCAUGU.

Regarding B17, the binding signal was 0.173 KA relative to UGCAUGU.

As for B18, the binding signal was 0.0684 KA relative to UGCAUGU.

For the molecule B19, the binding signal is 0.13 KA relative to UGCAUGU.

For the molecule B20, the binding signal is 0.0769 KA relative to UGCAUGU.

As to B21, the binding signal was 0.0843 KA relative to UGCAUGU.

In the case of B22, the binding signal is 0.0926 KA relative to UGCAUGU.

With B23, the binding signal is 0.108 KA relative to UGCAUGU.

Regarding B24, the binding signal was 0.14 KA relative to UGCAUGU.

In the case of B25, the binding signal was 0.12 KA relative to UGCAUGU.

For B26, the binding signal was 0.195 KA relative to UGCAUGU.

Turning to B27, the binding signal was 0.0864 KA relative to UGCAUGU.

Take B28: the binding signal is 0.102 KA relative to UGCAUGU.

With B29, the binding signal was 0.0833 KA relative to UGCAUGU.

Consider B30, for which the binding signal is 0.147 KA relative to UGCAUGU.

As to B31, the binding signal was 0.111 KA relative to UGCAUGU.
